Data: paper PMC11995724, “Antibiotic target discovery by integrated phenotypic and activity-based profiling of electrophilic fragments” (Cell chemical biology, 2025)
Out of some 3,200 compounds screened, about 110 (3.4%) showed an effect of 50% or more. The list shows a part of the results.

system: T1, V. cholerae SAD30; set-up: species or system S. aureus MSSA476 (TSB) or V. cholerae SAD30 (LB); 384-well bacterial growth screen at 25 uM, OD600 relative to DMSO control; details: relative growth, OD600, LB; 25 µM; inhibitor
T1 construct: SAD30

Row | SMILES | % of control remaining
1 | Cc1cccc(NC(=O)C(C#N)=Cc2cc(C)c(C)cc2C)c1 [8-C18, 2-cyano-N-(3-methylphenyl)-3-(2,4,5-trimethylphenyl)prop-2-enamide] | 77.2944%
2 | CN(Cc1cc(-c2ccccc2)[nH]n1)C(=O)CCl [5-D15, 2-chloro-N-methyl-N-[(5-phenyl-1H-pyrazol-3-yl)methyl]acetamide] | 93.643%
3 | Cc1cccc(NC(=O)C(C#N)=Cc2cc(C)n(C3CC3)c2C)c1 [9-D17, 2-cyano-3-(1-cyclopropyl-2,5-dimethyl-1H-pyrrol-3-yl)-N-(3-methylphenyl)prop-2-enamide] | 86.8117%
4 | CC(=O)Nc1ccc(NC(=O)C(C)Cl)cc1 (stereo not drawn) [5-N06, 2-chloro-N-(4-acetamidophenyl)propanamide] | 100.704%
5 | O=C(CCl)Cc1cc(Cl)cc(Cl)c1 [10-I15, 1-chloro-3-(3,5-dichlorophenyl)propan-2-one] | 20.7286%
6 | O=C(CCl)NCc1ccccc1CN1CCCC1=O [6-K14, 2-chloro-N-({2-[(2-oxopyrrolidin-1-yl)methyl]phenyl}methyl)acetamide] | 91.0039%
7 | CCc1ccc(C(NC(=O)CCl)c2cccc(F)c2)cc1 (stereo not drawn) [4-C20, 2-chloro-N-[(4-ethylphenyl)(3-fluorophenyl)methyl]acetamide] | 106.448%
8 | CCc1ccc(NC(=O)C(C#N)=Cc2cccn2C)cc1 [8-A20, 2-cyano-N-(4-ethylphenyl)-3-(1-methyl-1H-pyrrol-2-yl)prop-2-enamide] | 63.9701%
9 | C=CC(=O)NCc1cn(C(F)F)c2ccccc12 [2-F11, N-{[1-(difluoromethyl)-1H-indol-3-yl]methyl}prop-2-enamide] | 90.9679%
10 | C=CC(=O)NCc1cn(-c2ccccc2)nn1 [2-I13, N-[(1-phenyl-1H-1,2,3-triazol-4-yl)methyl]prop-2-enamide] | 76.1459%
11 | O=C(CCl)NC(C1CC1)C1CC1 [6-C22, 2-chloro-N-(dicyclopropylmethyl)acetamide] | 100.711%
12 | CC(Cl)C(=O)NCCC1(CO)CC1 (stereo not drawn) [7-H19, 2-chloro-N-{2-[1-(hydroxymethyl)cyclopropyl]ethyl}propanamide] | 82.075%
13 | C=CC(=O)NCCS(=O)(=O)c1cccs1 [3-J17, N-[2-(thiophene-2-sulfonyl)ethyl]prop-2-enamide] | 87.3259%
14 | N#CC(=Cc1ccc(O)c(O)c1)C(=O)Nc1cccc(Cl)c1Cl [8-F07, 2-cyano-N-(2,3-dichlorophenyl)-3-(3,4-dihydroxyphenyl)prop-2-enamide] | 65.1937%
15 | O=C(CCl)NC1CCS(=O)(=O)c2ccc(F)cc21 (stereo not drawn) [7-H06, 2-chloro-N-(6-fluoro-1,1-dioxo-3,4-dihydro-2H-1lambda6-benzothiopyran-4-yl)acetamide] | 83.0002%
16 | COc1ccc(C=C(C#N)C(=O)Nc2ccc(C(=O)O)cc2)cc1O [9-F10, 4-[2-cyano-3-(3-hydroxy-4-methoxyphenyl)prop-2-enamido]benzoic acid] | 92.5221%
17 | C=CC(=O)N1CCC(C(=O)N[C@H](C)c2ccc3c(c2)CCCC3)CC1 [3-P12, 1-(prop-2-enoyl)-N-[(1R)-1-(5,6,7,8-tetrahydronaphthalen-2-yl)ethyl]piperidine-4-carboxamide] | 97.2064%
18 | CC(Cl)C(=O)NCC(NS(=O)(=O)N(C)C)C1CCCC1 (stereo not drawn) [7-G16, 2-chloro-N-{2-cyclopentyl-2-[(dimethylsulfamoyl)amino]ethyl}propanamide] | 80.2247%
19 | C=CC(=O)NCc1ncc(C)o1 [2-P21, N-[(5-methyl-1,3-oxazol-2-yl)methyl]prop-2-enamide] | 106.253%
20 | Cc1cccc(C=C(C#N)C(=O)NC(C)C)c1 [8-J07, 2-cyano-3-(3-methylphenyl)-N-(propan-2-yl)prop-2-enamide] | 74.4392%
21 | C=CC(=O)N1CCC(C(=O)N2CCc3ccc([N+](=O)[O-])cc32)CC1 [1-C06, 1-[4-(6-nitro-2,3-dihydro-1H-indole-1-carbonyl)piperidin-1-yl]prop-2-en-1-one] | 92.6756%
22 | CC(Cl)C(=O)N1CCOCC1c1nc(-c2cccs2)no1 (stereo not drawn) [7-B17, 2-chloro-1-{3-[3-(thiophen-2-yl)-1,2,4-oxadiazol-5-yl]morpholin-4-yl}propan-1-one] | 72.6912%
23 | Cn1ccnc1Sc1ccc(C=C(C#N)C(N)=O)cc1[N+](=O)[O-] [8-D03, 2-cyano-3-{4-[(1-methyl-1H-imidazol-2-yl)sulfanyl]-3-nitrophenyl}prop-2-enamide] | 97.5527%

Row | SMILES | % of control remaining
24 | C=CC(=O)N[C@H]1CCCC[C@H]1n1cc(C(C)(C)O)nn1 [1-P07, N-[(1S,2R)-2-[4-(2-hydroxypropan-2-yl)-1H-1,2,3-triazol-1-yl]cyclohexyl]prop-2-enamide] | 103.139%
25 | CN(C)S(=O)(=O)c1ccccc1CNC(=O)CCl [4-J22, 2-chloro-N-{[2-(dimethylsulfamoyl)phenyl]methyl}acetamide] | 115.247%
26 | Cc1ccc(NC(=O)N2CCSSCC2)c(C)c1 [10-F11, N-(2,4-dimethylphenyl)-1,2,5-dithiazepane-5-carboxamide] | 95.0711%
27 | C=CC(=O)Nc1ccc(CN2CCC(C)CC2)cc1 [1-D21, N-{4-[(4-methylpiperidin-1-yl)methyl]phenyl}prop-2-enamide] | 93.2735%
28 | C=CC(=O)NCc1nnc(COC)[nH]1 [3-F10, N-{[5-(methoxymethyl)-4H-1,2,4-triazol-3-yl]methyl}prop-2-enamide] | 95.0891%
29 | C=CCNC(=O)C(C#N)=Cc1cc(C)n(-c2ccc(C)cc2)c1C [8-C17, 2-cyano-3-[2,5-dimethyl-1-(4-methylphenyl)-1H-pyrrol-3-yl]-N-(prop-2-en-1-yl)prop-2-enamide] | 61.9307%
30 | C=CC(=O)Nc1ccc(C2=NNC(=O)CO2)cc1 [3-L18, N-[4-(5-oxo-5,6-dihydro-4H-1,3,4-oxadiazin-2-yl)phenyl]prop-2-enamide] | 93.6776%
31 | C=CC(=O)NCc1cc(-c2cccc(OC)c2)no1 [1-I11, N-{[3-(3-methoxyphenyl)-1,2-oxazol-5-yl]methyl}prop-2-enamide] | 85.9492%
32 | C=CC(=O)N1CCCC(S(=O)(=O)NC)C1 (stereo not drawn) [3-D17, N-methyl-1-(prop-2-enoyl)piperidine-3-sulfonamide] | 100.912%
33 | CC(Cl)C(=O)N(Cc1ccc(Cl)cc1)Cc1cnn(C)c1 (stereo not drawn) [5-P17, 2-chloro-N-[(4-chlorophenyl)methyl]-N-[(1-methyl-1H-pyrazol-4-yl)methyl]propanamide] | 96.8372%
34 | C=CC(=O)NCc1ccc(-n2ccc(C)n2)nc1 [3-H16, N-{[6-(3-methyl-1H-pyrazol-1-yl)pyridin-3-yl]methyl}prop-2-enamide] | 91.5604%
35 | N#CC(C(=O)Nc1ccc2c(c1)OCCO2)=C1N=C(N)c2ccccc21 [8-L03, 2-(3-amino-1H-isoindol-1-ylidene)-2-cyano-N-(2,3-dihydro-1,4-benzodioxin-6-yl)acetamide] | 85.588%
36 | CCN(C(=O)CCl)C(c1ccccc1)c1ccc(F)cc1 (stereo not drawn) [6-J11, 2-chloro-N-ethyl-N-[(4-fluorophenyl)(phenyl)methyl]acetamide] | 85.9987%
37 | CC(Cl)C(=O)NC(C)c1nnc2n1CCCC2 (stereo not drawn) [6-H13, 2-chloro-N-(1-{5H,6H,7H,8H-[1,2,4]triazolo[4,3-a]pyridin-3-yl}ethyl)propanamide] | 88.5771%
38 | CC1CN(S(=O)(=O)c2ccc(NC(=O)CCl)cc2)CC(C)O1 (stereo not drawn) [5-O15, 2-chloro-N-{4-[(2,6-dimethylmorpholin-4-yl)sulfonyl]phenyl}acetamide] | 100.032%
39 | Cc1noc(C)c1C(=O)CCl [10-K13, 2-chloro-1-(3,5-dimethyl-1,2-oxazol-4-yl)ethan-1-one] | 23.0664%
40 | O=C1C=CC(=O)N1c1ccc2ccccc2c1 [10-D07, 1-(naphthalen-2-yl)-2,5-dihydro-1H-pyrrole-2,5-dione] | 22.2872%
41 | C=CC(=O)Nc1ccoc1C(=O)c1ccc(C)cc1 [1-A04, N-[2-(4-methylbenzoyl)furan-3-yl]prop-2-enamide] | 72.9447%
42 | CC(Cl)C(=O)Nc1ccc2ccccc2c1 (stereo not drawn) [5-H10, 2-chloro-N-(naphthalen-2-yl)propanamide] | 71.1148%
43 | CC(C)CNC(=O)c1ccccc1NC(=O)CCl [4-E04, 2-(2-chloroacetamido)-N-(2-methylpropyl)benzamide] | 105.24%
44 | Cc1ccc(C(=O)c2ccccc2NC(=O)CCl)cc1 [4-N17, 2-chloro-N-[2-(4-methylbenzoyl)phenyl]acetamide] | 101.445%
45 | N#CC(=CC1=Cc2ccccc2OC1)C(=O)Nc1ccc(C(=O)O)cc1 [8-N08, 4-[3-(2H-chromen-3-yl)-2-cyanoprop-2-enamido]benzoic acid] | 71.9918%
